# Assay results taken from the supplement of paper PMC8728848.
# This is one part of the list.
# B1: DC-ASPGR (Homo sapiens), CLC10_HUMAN (protein)
# chain: LDQNSKFQRDLVTLRTDFSNFTSNTVAEIQALTSQGSSLEETIASLKAEVEGFKQERQAVHSEMLLRVQQLVQDLKKLTCQVATLNNNASTEGTCCPVNWVEHQDSCYWFSHSGMSWAEAEKYCQLKNAHLVVINSREEQNFVQKYLGSAYTWMGLSDPEGAWKWVDGTDYATGFQNWKPGQPDDWQGHGLGGGEDCAHFHPDGRWNDDVCQRPYHWVCEAGLGQTSQESHVEPKSCDKTHTCPPCPAPELLGGPSVFLFPPKPKDTLMISRTPEVTCVVVDVSHEDPEVKFNWYVDGVEVHNAKTKPREEQFNSTYRVVSVLTVLHQDWLNGKEYKCKVSNKGLPSSIEKTISKAKGQPREPQVYTLPPSQEEMTKNQVSLTCLVKGFYPSDIAVEWESNGQPENNYKTTPPVLDSDGSFFLYSRLTVDKSRWQEGNVFSCSVMHEALHNHYTQK
# How the values were obtained:
# Experiment in all cases: glycan array binding signal (z-score within array); higher = stronger binding
# Conditions in all cases: glycan notation: IUPAC condensed, linker removed
# [1] = target: Neu5Ac(a2-3)Gal(b1-4)[Fuc(a1-3)]GlcNAc
# Method in brief: (§1)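 Negative Z-scores can be read as non-binding. The Z-score is calculated within each array and then averaged across arrays of one protein sequence at different concentrations or buffers and across linkers. Arrays, 3228 in all, were curated from the Consortium for Functional Glycomics database and kept only where the protein sequence was available.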
# [2] = target: Neu5Ac(a2-3)Gal(b1-4)[Fuc(a1-3)]GlcNAc(b1-3)Gal
# Method in brief: as §1
# [3] = target: Neu5Ac(a2-3)Gal(b1-4)[Fuc(a1-3)]GlcNAc(b1-3)Gal(b1-4)GlcNAc
# Method in brief: as §1
# [4] = target: Neu5Ac(a2-3)Gal(b1-4)[Fuc(a1-3)]GlcNAc(b1-3)Gal(b1-4)[Fuc(a1-3)]GlcNAc(b1-3)Gal(b1-4)[Fuc(a1-3)]GlcNAc
# Method in brief: as §1
# [5] = target: Neu5Ac(a2-3)Gal(b1-4)[Fuc(a1-3)]GlcNAc(b1-6)[Gal(b1-3)]GalNAc
# Method in brief: as §1
# [6] = target: Neu5Ac(a2-3)Gal(b1-4)[Fuc(a1-3)]GlcNAc(b1-6)[Neu5Ac(a2-3)Gal(b1-3)]GalNAc
# Method in brief: as §1
# [7] = target: Neu5Ac(a2-3)Gal(b1-4)[Fuc(a1-3)]GlcNAc6S
# Method in brief: as §1
# [8] = target: Neu5Ac(a2-3)Gal6S(b1-4)GlcNAc
# Method in brief: as §1
# [9] = target: Neu5Ac(a2-3)Gal6S(b1-4)[Fuc(a1-3)]GlcNAc
# Method in brief: as §1
# Neu5Ac(a2-3)GalNAc = target: Neu5Ac(a2-3)GalNAc
# Method in brief: as §1
# [10] = target: Neu5Ac(a2-3)GalNAc(b1-4)GlcNAc
# Method in brief: as §1
# [11] = target: Neu5Ac(a2-3)[GalNAc(b1-4)]Gal(b1-4)Glc
# Method in brief: as §1
# [12] = target: Neu5Ac(a2-3)[GalNAc(b1-4)]Gal(b1-4)GlcNAc
# Method in brief: as §1
# [13] = target: Neu5Ac(a2-3)[Neu5Ac(a2-6)]GalNAc
# Method in brief: as §1
# Neu5Ac(a2-6)Gal = target: Neu5Ac(a2-6)Gal
# Method in brief: as §1
# Neu5Ac(a2-6)Gal(b1-4)Glc = target: Neu5Ac(a2-6)Gal(b1-4)Glc
# Method in brief: as §1
# [14] = target: Neu5Ac(a2-6)Gal(b1-4)GlcNAc
# Method in brief: as §1
# [15] = target: Neu5Ac(a2-6)Gal(b1-4)GlcNAc(b1-2)Man(a1-3)Man(b1-4)GlcNAc(b1-4)GlcNAc
# Method in brief: as §1
# [16] = target: Neu5Ac(a2-6)Gal(b1-4)GlcNAc(b1-2)Man(a1-3)[Gal(b1-4)GlcNAc(b1-2)Man(a1-6)]Man(b1-4)GlcNAc(b1-4)GlcNAc
# Method in brief: as §1
# [17] = target: Neu5Ac(a2-6)Gal(b1-4)GlcNAc(b1-2)Man(a1-3)[GlcNAc(b1-2)Man(a1-6)]Man(b1-4)GlcNAc(b1-4)GlcNAc
# Method in brief: as §1
# [18] = target: Neu5Ac(a2-6)Gal(b1-4)GlcNAc(b1-2)Man(a1-3)[GlcNAc(b1-2)Man(b1-4)GlcNAc(b1-2)Man(a1-6)]Man(b1-4)GlcNAc(b1-4)GlcNAc
# Method in brief: as §1
# [19] = target: Neu5Ac(a2-6)Gal(b1-4)GlcNAc(b1-2)Man(a1-3)[Man(a1-6)]Man(b1-4)GlcNAc(b1-4)GlcNAc
# Method in brief: as §1
# [20] = target: Neu5Ac(a2-6)Gal(b1-4)GlcNAc(b1-2)Man(a1-3)[Neu5Ac(a2-6)Gal(b1-4)GlcNAc(b1-2)Man(a1-6)]Man(b1-4)GlcNAc(b1-4)GlcNAc
# Method in brief: as §1
# [21] = target: Neu5Ac(a2-6)Gal(b1-4)GlcNAc(b1-2)Man(a1-6)Man(b1-4)GlcNAc(b1-4)GlcNAc
# Method in brief: as §1
# [22] = target: Neu5Ac(a2-6)Gal(b1-4)GlcNAc(b1-2)Man(a1-6)[Gal(b1-4)GlcNAc(b1-2)Man(a1-3)]Man(b1-4)GlcNAc(b1-4)GlcNAc
# Method in brief: as §1
# [23] = target: Neu5Ac(a2-6)Gal(b1-4)GlcNAc(b1-2)Man(a1-6)[GlcNAc(b1-2)Man(a1-3)]Man(b1-4)GlcNAc(b1-4)GlcNAc
# Method in brief: as §1
# [24] = target: Neu5Ac(a2-6)Gal(b1-4)GlcNAc(b1-2)Man(a1-6)[Man(a1-3)]Man(b1-4)GlcNAc(b1-4)GlcNAc
# Method in brief: as §1
# [25] = target: Neu5Ac(a2-6)Gal(b1-4)GlcNAc(b1-3)Gal(b1-3)GlcNAc
# Method in brief: as §1
binder,measurement,setting,value
B1,glycan array binding signal (z-score),[1],-0.215
same,glycan array binding signal (z-score),[2],-0.27
same,glycan array binding signal (z-score),[3],-0.185
same,glycan array binding signal (z-score),[4],-0.181
same,glycan array binding signal (z-score),[5],0.034
same,glycan array binding signal (z-score),[6],0.645
same,glycan array binding signal (z-score),[7],-0.265
same,glycan array binding signal (z-score),[8],-0.179
same,glycan array binding signal (z-score),[9],-0.266
same,glycan array binding signal (z-score),Neu5Ac(a2-3)GalNAc,-0.134
same,glycan array binding signal (z-score),[10],-0.279
same,glycan array binding signal (z-score),[11],1.06
same,glycan array binding signal (z-score),[12],1.14
same,glycan array binding signal (z-score),[13],-0.28
same,glycan array binding signal (z-score),Neu5Ac(a2-6)Gal,-0.225
same,glycan array binding signal (z-score),Neu5Ac(a2-6)Gal(b1-4)Glc,-0.255
same,glycan array binding signal (z-score),[14],-0.236
same,glycan array binding signal (z-score),[15],-0.154
same,glycan array binding signal (z-score),[16],-0.209
same,glycan array binding signal (z-score),[17],0.448
same,glycan array binding signal (z-score),[18],-0.042
same,glycan array binding signal (z-score),[19],-0.092
same,glycan array binding signal (z-score),[20],0.389
same,glycan array binding signal (z-score),[21],-0.066
same,glycan array binding signal (z-score),[22],-0.115
same,glycan array binding signal (z-score),[23],-0.153
same,glycan array binding signal (z-score),[24],-0.05
same,glycan array binding signal (z-score),[25],-0.219
